Source: PubChem BioAssay (Tox21)
Values joined by “and” are separate entries in the source; they are usually repeats but may differ in a detail not shown here. Equal entries are not always repeated. Inconclusive results, whose numbers are uncertain, are shown with a selection of clear calls. Potencies beside an inconclusive call are fits to weak or partial responses and may not hold up. Some structures have more than one record in an assay (separate samples or runs), and their calls can disagree. Active and inactive are the calls of the source. Unless noted, calls follow the shape of the dose curve; as a rule, active = well fitted curve in the direction sought with a large enough effect in the repeat runs; inconclusive = weak or mixed curves; inactive = no such curve, though single readings can be large; an effect the other way counts as inactive or inconclusive.

Assays:
[1] = target: Progesterone receptor (Homo sapiens) (UniProt P06401); assay: qHTS assay to identify small molecule antagonists of the progesterone receptor (PR) signaling pathway (AID 1346795; active = well fitted inhibition curve with a large enough effect in the signal ratio in the repeat runs, not every such curve was filed as active; inconclusive = weak or mixed curves; the % refers to the signal ratio; as to activity change, negative = inhibition: % is scaled to controls: 0 for no effect and ±100 for the full control effect); conditions: PR-UAS-bla HEK293T, beta-lactamase FRET ratio, 16 h; activity change, negative = inhibition: at 92.4 µM (top of the series) unless noted
Chain of UniProt P06401 (P06401 whole entry, looked up): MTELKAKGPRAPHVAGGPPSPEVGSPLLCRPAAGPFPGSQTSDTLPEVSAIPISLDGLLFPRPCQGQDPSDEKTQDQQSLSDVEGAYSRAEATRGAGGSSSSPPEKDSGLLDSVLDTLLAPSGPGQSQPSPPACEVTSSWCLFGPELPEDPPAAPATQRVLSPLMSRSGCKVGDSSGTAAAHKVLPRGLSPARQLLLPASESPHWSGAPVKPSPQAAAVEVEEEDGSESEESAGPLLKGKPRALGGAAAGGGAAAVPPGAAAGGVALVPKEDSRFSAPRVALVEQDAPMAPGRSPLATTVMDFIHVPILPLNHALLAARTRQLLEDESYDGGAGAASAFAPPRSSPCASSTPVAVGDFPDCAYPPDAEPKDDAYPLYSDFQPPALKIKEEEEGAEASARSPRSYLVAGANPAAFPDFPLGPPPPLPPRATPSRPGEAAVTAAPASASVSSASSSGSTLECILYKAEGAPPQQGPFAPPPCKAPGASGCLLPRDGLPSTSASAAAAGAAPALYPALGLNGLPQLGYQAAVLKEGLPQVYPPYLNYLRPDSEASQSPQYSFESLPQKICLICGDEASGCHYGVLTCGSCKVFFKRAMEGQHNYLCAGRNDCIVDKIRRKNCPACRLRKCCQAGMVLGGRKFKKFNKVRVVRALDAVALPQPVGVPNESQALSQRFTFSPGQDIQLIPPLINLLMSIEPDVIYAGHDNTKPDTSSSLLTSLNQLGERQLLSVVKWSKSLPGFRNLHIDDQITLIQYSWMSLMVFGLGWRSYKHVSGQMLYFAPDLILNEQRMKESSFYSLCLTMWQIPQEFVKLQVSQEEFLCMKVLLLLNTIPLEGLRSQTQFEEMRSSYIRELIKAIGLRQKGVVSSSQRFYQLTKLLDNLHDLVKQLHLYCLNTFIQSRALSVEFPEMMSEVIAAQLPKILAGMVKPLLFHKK
In short: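 HEK293T PR-UAS-bla reporter cells in charcoal-stripped serum (2%) received compound after a 6 hr settling period, followed by R5020 agonist at 1 nM final; 16 hr incubation preceded the FRET substrate step and fluorescence measurement.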

[2] = qHTS assay to identify small molecule antagonists of the progesterone receptor (PR) signaling pathway - cell viability counter screen (AID 1346798); also: nearly all actives have a fitted effect of over 50% in size; as to activity change, negative = cytotoxicity: % is scaled to controls: 0 for no effect and ±100 for the full control effect
In short: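 Same-well multiplex: after 16 hr at 37C with compound and R5020 stimulation, HEK293T cells carrying a UAS-bla reporter received LiveBLAzer substrate (2 hr RT), then CellTiter-Glo (30 min RT) for luminescent viability.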

[3] = Caspase-3/7 induction in CHO-K1 cells by small molecules, qHTS cell viability counter screen (AID 1346979); conditions: CellTiter-Fluor fluorescence, 17 h; activity change, negative = cytotoxicity: at 92.4 µM (top of the series); also: nearly all actives have a fitted effect of over 35% in size
In short: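 In the same wells as the caspase read, viability of compound-treated wild-type CHO-K1 cells was assessed using CellTiter-Fluor, added after 16hr at 37C and measured by fluorescence following 1hr further incubation.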

[4] = target: Nuclear receptor subfamily 1 group I member 2 (Homo sapiens) (UniProt O75469); assay: Human pregnane X receptor (PXR) small molecule agonists, qHTS assay (AID 1346982); also: nearly all actives have a fitted effect of over 35% in size
In short: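 Tox21 qHTS; PXR-Luc HepG2; compounds pinned from DMSO; 24 hr, 37 C; ONE-Glo luciferase detection, 30 min room temperature.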

[5] = Caspase-3/7 induction in HepG2 cells by small molecules, qHTS cell viability counter screen (AID 1346981); also: nearly all actives have a fitted effect of over 30% in size
In short: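 After a 5-hr attachment period at 37 C and 5% CO2, wild-type HepG2 cells received compounds in DMSO. Sixteen hours later CellTiter-Fluor was dispensed and the fluorescent signal quantified after a further hour.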

[6] = target: Cytochrome P450 2D6 (Homo sapiens) (UniProt P10635); assay: Cytochrome P450 Family 2 Subfamily D Member 6 (CYP2D6) small molecule antagonists: luciferase reporter qHTS assay (AID 1671196); also: nearly all actives have a fitted effect of over 50% in size
Chain of UniProt P10635 (P10635 whole entry, looked up): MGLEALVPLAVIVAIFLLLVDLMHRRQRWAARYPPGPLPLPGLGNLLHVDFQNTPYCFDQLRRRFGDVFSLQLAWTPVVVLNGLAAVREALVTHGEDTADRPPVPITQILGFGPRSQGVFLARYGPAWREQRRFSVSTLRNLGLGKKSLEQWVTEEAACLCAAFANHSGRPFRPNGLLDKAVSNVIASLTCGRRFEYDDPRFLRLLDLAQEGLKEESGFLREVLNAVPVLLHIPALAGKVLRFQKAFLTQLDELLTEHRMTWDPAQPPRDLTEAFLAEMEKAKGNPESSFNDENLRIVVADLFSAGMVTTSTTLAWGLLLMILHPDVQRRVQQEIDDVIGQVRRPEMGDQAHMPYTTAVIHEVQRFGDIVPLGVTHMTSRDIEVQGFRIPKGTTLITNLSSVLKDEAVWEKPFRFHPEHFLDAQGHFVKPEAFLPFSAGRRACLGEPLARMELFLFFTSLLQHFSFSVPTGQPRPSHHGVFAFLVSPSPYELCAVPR
In short: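 Room-temperature luminescent CYP2D6 activity assay: compound preincubated 10 min with enzyme–substrate mix, NADPH-initiated reaction 1 h, detection reagent 20 min before reading.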

[7] = target: Cytochrome P450 2C9 (Homo sapiens) (UniProt P11712); assay: Cytochrome P450 Family 2 Subfamily C Member 9 (CYP2C9) small molecule antagonists: luciferase reporter qHTS assay (AID 1671198); also: nearly all actives have a fitted effect of over 50% in size; as to activity change, negative = inhibition: % is scaled to controls: 0 for no effect and ±100 for the full control effect
Chain of UniProt P11712 (P11712 whole entry, looked up): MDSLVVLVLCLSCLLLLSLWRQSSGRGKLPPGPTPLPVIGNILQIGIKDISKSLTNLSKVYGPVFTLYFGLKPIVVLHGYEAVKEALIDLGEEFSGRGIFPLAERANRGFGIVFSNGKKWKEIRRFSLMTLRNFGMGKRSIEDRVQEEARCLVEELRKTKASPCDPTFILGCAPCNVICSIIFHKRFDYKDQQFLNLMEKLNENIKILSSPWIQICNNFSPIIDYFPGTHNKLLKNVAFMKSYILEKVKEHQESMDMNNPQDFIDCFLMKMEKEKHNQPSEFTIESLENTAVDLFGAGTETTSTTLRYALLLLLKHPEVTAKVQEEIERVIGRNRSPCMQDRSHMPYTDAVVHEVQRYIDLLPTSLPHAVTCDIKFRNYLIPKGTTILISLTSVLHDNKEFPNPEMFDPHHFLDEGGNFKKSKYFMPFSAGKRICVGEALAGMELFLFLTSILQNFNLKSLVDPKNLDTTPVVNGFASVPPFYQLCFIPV
In short: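 CYP2C9 activity was measured with a P450-Glo proluciferin substrate. Enzyme–substrate mix was held with compound for 10 min at room temperature, then NADPH regeneration solution was added for 1 h at 37C. Luciferin product was read as luminescence.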

[8] = target: Thyrotropin-releasing hormone receptor (Homo sapiens) (UniProt P34981); assay: qHTS assay to identify small molecule agonists of the thyrotropin-releasing hormone receptor (TRHR) signaling pathway (AID 1346891; calls by dose curve;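 as to activation: HEK293 cells expressing TRHR with calcium dye readout; % is scaled to controls: 0 for no effect and ±100 for the full control effect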)
Chain of UniProt P34981 (P34981 whole entry, looked up): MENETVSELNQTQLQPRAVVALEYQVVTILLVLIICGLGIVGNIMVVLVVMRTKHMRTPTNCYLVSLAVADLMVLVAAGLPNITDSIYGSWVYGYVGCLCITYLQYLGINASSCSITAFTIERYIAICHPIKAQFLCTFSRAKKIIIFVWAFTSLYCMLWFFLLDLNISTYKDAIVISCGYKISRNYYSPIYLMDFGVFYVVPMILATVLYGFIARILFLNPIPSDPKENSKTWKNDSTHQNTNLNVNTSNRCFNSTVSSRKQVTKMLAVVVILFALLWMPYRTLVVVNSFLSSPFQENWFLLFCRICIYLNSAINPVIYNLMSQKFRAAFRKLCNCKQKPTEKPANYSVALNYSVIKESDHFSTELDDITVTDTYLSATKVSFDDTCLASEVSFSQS
In short: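 Agonist-mode calcium mobilisation screen: TRHR-transfected HEK293 cells cultured overnight (18 h), dye-loaded for 2 h at 37 °C, exposed to compounds, and monitored by fluorescence for 3 min.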

[9] = Caspase-3/7 induction in HepG2 cells by small molecules, qHTS assay (AID 1346978); also: nearly all actives have a fitted effect of over 15% in size
In short: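 Wild-type HepG2 cells (2,000/well) were settled 5 h at 37 C, 5% CO2, then exposed to compounds in DMSO for 17 h. Caspase-3/7 activity was read by luminescence 30 min after adding Caspase-Glo 3/7 reagent at room temperature.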

[10] = qHTS assay to identify small molecule agonists of the progesterone receptor (PR) signaling pathway - cell viability counter screen (AID 1346799; calls by dose curve; also: nearly all actives have a fitted effect of over 45% in size)
In short: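 Counter screen for cytotoxicity: compound-treated PR-UAS-bla HEK293T cells (16 hr, 37C, 5% CO2) were assayed with CellTiter-Glo, luminescence measured after 30 min at room temperature.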

[11] = Human pregnane X receptor (PXR) small molecule agonists, qHTS cell viability counter screen (AID 1346977); also: nearly all actives have a fitted effect of over 50% in size
In short: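 Measures live-cell protease fluorescence (CellTiter-Fluor) in PXR-Luc HepG2 cells treated 24hr with compounds at 37C. Cells had 5hr to attach before pin transfer of DMSO solutions.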

[12] = target: Nuclear receptor subfamily 1 group I member 2 (Rattus norvegicus) (UniProt Q9R1A7); assay: Rat pregnane X receptor (rPXR) activation by small molecules, qHTS assay (AID 1346983); conditions: rPXR luciferase reporter cells, One-Glo luminescence, 24 h; max activation: stronger effect = higher value; also: nearly all actives have a fitted effect of over 20% in size
Chain of UniProt Q9R1A7 (Q9R1A7 whole entry, looked up): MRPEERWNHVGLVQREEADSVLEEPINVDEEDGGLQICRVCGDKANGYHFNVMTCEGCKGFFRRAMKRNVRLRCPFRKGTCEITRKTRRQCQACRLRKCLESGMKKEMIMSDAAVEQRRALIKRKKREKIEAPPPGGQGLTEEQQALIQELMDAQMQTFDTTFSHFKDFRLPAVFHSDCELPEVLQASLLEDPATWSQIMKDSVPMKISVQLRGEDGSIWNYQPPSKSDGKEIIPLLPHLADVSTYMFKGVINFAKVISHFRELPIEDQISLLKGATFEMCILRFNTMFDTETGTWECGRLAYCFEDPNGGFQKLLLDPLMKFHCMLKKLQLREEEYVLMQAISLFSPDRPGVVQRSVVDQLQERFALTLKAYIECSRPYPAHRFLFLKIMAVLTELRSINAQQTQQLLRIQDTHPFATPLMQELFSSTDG
In short: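 Cell-based rPXR luciferase reporter assay, 2,000 cells per well, rested 5hr at 37 C before compound addition in DMSO, then 24 hr at 37 C. One-Glo reagent was added and luminescence read after 30 min at room temperature.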

[13] = target: Nuclear receptor subfamily 1 group I member 2 (Homo sapiens) (UniProt O75469); assay: CYP3A4 induction through human pregnane X receptor (PXR) by small molecules, qHTS assay (AID 1346984); also: nearly all actives have a fitted effect of over 40% in size
In short: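 Cells (DPX-2; HepG2 with PXR element plus CYP3A4-promoter luciferase) settled 5hr, then were treated 24hr at 37C. A 3hr, 3uM-final Luciferin-IPA step preceded luminescence measurement with One-Glo.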
Potency is read from the fitted curve at half-maximal effect; tags tell the direction and shape of the fitted curve.

## CC1=CC[C@H]2C[C@@H]1C2(C)C
[1]
  activity change, negative = inhibition: inconclusive: 14.1%
[2]
  Potency: inactive
[3]
  Potency: inconclusive: 61.7 µM [cytotoxic, partial curve, poor fit]
[4]
  Potency: inconclusive: 69.2 µM [activator, single point]

## C=C(C)[C@@H]1CCC2=CC(=O)C[C@@H](C)[C@]2(C)C1
[1]
  Potency: inconclusive: 48.6 µM [falling, partial curve]
[2]
  Potency: inconclusive: 1.37 µM [cytotoxic, single point]
[4]
  Potency: inconclusive: 34.4 µM [activator, partial curve]

## CC[Si](OC(C)=O)(OC(C)=O)OC(C)=O
[1]
  Potency: inactive
[2]
  Potency: inconclusive: 61.1 µM [rising, partial curve, poor fit]
[5]
  Potency: inconclusive: 76.9 µM [rising, single point]
[6]
  Potency: inconclusive: 71 µM [inhibitor, partial curve] and active: 35.6 µM
[7]
  Potency: active: 71 µM and inactive

## CC(=O)C(=O)CC(C)C
[1]
  activity change, negative = inhibition: inconclusive: 3.62%
[2]
  Potency: inconclusive: 1.36 µM [cytotoxic, single point]
[7]
  Potency: inconclusive: 35.4 µM [inhibitor, partial curve]

## COC(=O)c1ccccc1O
[2]
  Potency: inconclusive: 68.7 µM [cytotoxic]

## CCCCC(=O)N(C)C
[2]
  Potency: inconclusive: 75.9 µM [cytotoxic, partial curve, poor fit]

## CCCOc1ccc2c(c1)CC[C@@H]1[C@@H]2CC[C@]2(C)C(OC)CC[C@@H]12 (stereo not given in full)
[8]
  Potency: inactive

## CC1(C)[C@@H](O)CC[C@]2(C)[C@H]3C(=O)C=C4[C@@H]5C[C@@](C)(C(=O)O)CC[C@]5(C)CC[C@@]4(C)[C@]3(C)CC[C@@H]12
[8]
  Potency: inconclusive: 34.3 µM [activator, partial curve, poor fit]
[9]
  Potency: inconclusive: 67.8 µM [activator, partial curve, poor fit]

## C[C@H]1c2cccc(O)c2C(O)=C2C(=O)[C@]3(O)C(O)=C(C(N)=O)C(=O)[C@@H](N(C)C)[C@@H]3[C@@H](O)[C@@H]21
[9]
  Potency: inactive

## CC1=C2[C@@H]([C@H](C)CC[C@H]2/C=C(\C)C(=O)O)[C@H](O)C1
[1]
  activity change, negative = inhibition: inconclusive: 2.21%
[10]
  Potency: inactive
[6]
  Potency: inconclusive: 55.8 µM [inhibitor, partial curve]
[7]
  Potency: inactive

## Oc1cc(Cl)cc(Cl)c1Cl
[1]
  activity change, negative = inhibition: inconclusive: -29.2%
[10]
  Potency: inconclusive: 31.4 µM [rising, full curve]
[3]
  Potency: inconclusive: 70.3 µM [cytotoxic, single point]
[5]
  Potency: inconclusive: 78.8 µM [cytotoxic, single point]
[4]
  Potency: inconclusive: 62.6 µM [activator]
[6]
  Potency: inconclusive: 81.7 µM [inhibitor, partial curve]
[7]
  Potency: inconclusive: 64.9 µM [inhibitor, partial curve, poor fit]

## CC(C)Cc1ccc(C(C)C(=O)OCc2ccccn2)cc1 (stereo not given)
[1]
  activity change, negative = inhibition: inconclusive: -33.7% [at 42.5 µM]
[10]
  Potency: inactive
[11]
  Potency: inactive
[4]
  Potency: inactive
[6]
  Potency: inconclusive: 30.9 µM [inhibitor, partial curve, poor fit]

## CCO[Si](CCCN)(OCC)OCC
[1]
  Potency: inactive
[10]
  Potency: inconclusive: 61.3 µM [rising, partial curve, poor fit]
[3]
  Potency: inconclusive: 68.7 µM [cytotoxic, single point]
[4]
  Potency: inconclusive: 30.7 µM [activator, partial curve]
[7]
  Potency: inactive

## CCN(CC)CCOC(=O)C(c1ccccc1)c1ccccc1
[1]
  Potency: inactive
[10]
  Potency: inactive
[11]
  Potency: inconclusive: 1.5 µM [rising, partial curve, poor fit]

## O=C(Oc1ccccc1)c1ccccc1C(=O)Oc1ccccc1
[1]
  Potency: active: 24.3 µM
[10]
  Potency: inconclusive: 68.6 µM [rising, single point]
[3]
  Potency: inconclusive: 68.6 µM [cytotoxic]

## CO[C@@]12[C@H](COC(N)=O)C3=C(C(=O)C(C)=C(N)C3=O)N1C[C@@H]1N[C@@H]12
[1]
  Potency: inconclusive: 26.6 µM [partial curve]
[10]
  Potency: inconclusive: 4.22 µM [cytotoxic, full curve]
[9]
  Potency: active: 11.9 µM
[3]
  Potency: active: 13.3 µM
[5]
  Potency: active: 11.9 µM
[12]
  Potency: inconclusive: 11.2 µM [activator, single point]
[13]
  Potency: inconclusive: 1.58 µM [activator, full curve, poor fit]
[6]
  Potency: inconclusive: 17.4 µM [inhibitor, partial curve]
[7]
  Potency: inconclusive: 19.5 µM [inhibitor, partial curve, poor fit]

## COC(=O)c1sccc1S(N)(=O)=O
[1]
  Potency: inactive
[10]
  Potency: inactive
[11]
  Potency: inconclusive: 48.6 µM [rising, partial curve, poor fit]
[5]
  Potency: inactive
[6]
  Potency: inconclusive: 63.3 µM [inhibitor, partial curve]

## CCCCCCCC/C=C/C(=O)O
[1]
  Potency: inconclusive: 2.98 µM [falling, single point]
[10]
  Potency: inactive
[5]
  Potency: inactive
